# Measured values as given in PubChem BioAssay AID1347417 (National Center for Advancing Translational Sciences (NCATS), 2020).
# Among all 120,000 compounds or so, about 5,300 (4.4%) were called active. This list was built around the results that the source calls inconclusive (neither active nor inactive); the mix of calls is not that of the screen. Calls follow the shape of the dose curve; as a rule, active = well fitted inhibition curve with a large enough effect; inconclusive = small, poorly fitted or top-dose-only effect; inactive = no such curve, though single readings can be large or run the other way. Potencies beside an inconclusive call are fits to weak or partial responses and may not hold up.
# Assay: qHTS Primary assay for Inhibitors of Plasmodium falciparum Dd2 growth in vitro; also: nearly all actives have a fitted effect of over 65% in size;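 as to activity, negative = inhibition: plate controls were DMSO vehicle for no effect and reference drug for full effect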
# Conditions: P. falciparum Dd2 growth, SYBR Green, 72 h; activity, negative = inhibition: at 28.9 µM (top of the series) unless noted; series mostly up to 28.9 µM
# How it was run: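 Infected erythrocytes (Dd2, 0.3% parasitemia, 2.5% hematocrit final) are added to compound in RPMI-1640/Albumax II medium, grown 72 h at 37C in low oxygen, then lysed with saponin/Triton-X containing SYBR Green and read by fluorescence.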
# Potency is read from the fitted curve at half-maximal effect; tags tell the direction and shape of the fitted curve.
Compound,Potency,"activity, negative = inhibition"
COC1CCC12CCN(C(=O)c1cccc(C#N)c1)CC2 (centres undefined),inactive,
COc1cc(C2NC(=O)c3c(sc4c3CCN(C)C4)N2)cc(Br)c1OC(=O)c1ccc(C)cc1 (centres undefined),inactive,
COCCN1C(=O)c2ccccc2C(C(=O)Nc2cc(C)ccc2OC)C12CCCCC2 (centres undefined),active: 10 µM,
CNC(=O)CCn1ncc2cc(OCc3ccccc3-c3ccc(F)cc3OC)ccc21,"inconclusive: 2.82 µM [inhibitor, partial curve]",
CCC1=C(C(=O)OC)C(c2ccccc2F)N2C(CC(=O)N3CCCC3)=CSC2=N1 (centres undefined),inactive,
O=C(NC[C@H]1Cn2c(-c3ccc(F)cc3)cnc2CO1)c1ccc(Cl)cc1,inactive,
CC1=C[C@@H](CN2CCC(C(N)=O)CC2)[C@H](C(C)C)C[C@H]1Cc1nnc(-c2ccccc2F)o1,inactive,
COc1ccc(OC)c(CNC(=O)c2ccc(C)c(NC(=O)c3nsc4ccccc34)c2)c1,"inconclusive: 17.8 µM [inhibitor, single point]",
CCCCNC(=O)C1CCN(S(=O)(=O)CCC)CC1,"inconclusive: 17.8 µM [inhibitor, single point]",
CN(C)C[C@@H]1CN(c2ccccn2)C[C@H]1NC(=O)c1cccn1C,"inconclusive: 2.51 µM [inhibitor, full curve]",
O=C(CCC[C@H]1NC[C@@H]2CC1CN(Cc1ccccc1)C2)N1CCC(N2CCCCC2)CC1,"inconclusive: 17.8 µM [inhibitor, single point]",
COCCNc1ncc(-c2ccccc2)c2c1OCC2,inactive,
COc1ccc(C2(C(=O)NC3CCCc4c3[nH]c3c(Cl)cccc43)CCOCC2)cc1 (centres undefined),"inconclusive: 12.6 µM [inhibitor, partial curve]",
COc1ccc(-c2c(C)c3ccc(O)c(CN4CCOCC4)c3oc2=O)cc1,active: 8.91 µM,
O=C(NCCn1ccn2nc(-c3ccc(F)cc3)cc2c1=O)c1cccs1,"inconclusive: 1.12 µM [inhibitor, partial curve, poor fit]",
O=C(NCc1cccc(F)c1)C1CCCN(C(=O)N2CCOc3ccccc32)C1 (centres undefined),inactive,
CCN1c2cc(C(=O)Nc3ccc(-n4ccnc4)cc3)ccc2C(=O)N2CCCCCC21 (centres undefined),"inconclusive: 3.98 µM [inhibitor, full curve, poor fit]",
Cc1ccc(NC(=O)C2CCN(S(=O)(=O)c3ccc4[nH]c5c(c4c3)CCCCC5)CC2)cc1,active: 11.2 µM,
CC1=C[C@@H](CNCc2ccccn2)[C@H](C(C)C)C[C@H]1Cc1nnc(-c2ccccc2)o1,active: 3.55 µM,
COc1cc(C(=O)N2CCC(O)(c3ccc(C)cn3)CC2)cc(OC)c1OC,inactive,
COC(=O)c1c(NC(=O)CCCOc2ccc(C(C)(C)C)cc2)sc2c1C(C(=O)OC)CC2 (centres undefined),"inconclusive: 17.8 µM [inhibitor, single point]",
COc1ccc(CC(=O)N2CC[C@@H](CC(=O)O)[C@@H](CCN3CCN(c4ccc(F)cc4)CC3)C2)cc1,inactive,

Compound,Potency,"activity, negative = inhibition"
Cc1ccc(C(=O)N2CCC3(CC2)SCC(=O)N3c2ccc(Cl)cc2)cc1[N+](=O)[O-],"inconclusive: 1.41 µM [inhibitor, full curve]",
Cc1noc2nc3c(c(C(=O)N[C@H]4CC[C@H]4N)c12)CCC3,"inconclusive: 17.8 µM [inhibitor, single point]",
CCn1ccnc1CN1CCCC(CNC(=O)c2ccc(-c3ccccc3)cc2)C1 (centres undefined),"inconclusive: 17.8 µM [inhibitor, single point]",
N#Cc1cc(CN2CCCC(C(=O)Nc3cccc(-c4ccc(F)cc4)c3)C2)c[nH]1 (centres undefined),active: 10 µM,
O=C1NCN(Cc2ccc(Cl)cc2)C12CCN(Cc1ccccc1)CC2,"inconclusive: 11.2 µM [inhibitor, single point]",
COc1ccc(-c2noc(N3CCC(C(=O)Nc4ccc(F)cc4Cl)CC3)n2)cc1,inactive,
O=C(c1cnccn1)N1[C@H]2CC[C@@H]1c1cnc(-c3ccc(F)cc3)nc1C2,"inconclusive: 5.01 µM [inhibitor, partial curve]",
CCCCN1C(=O)c2ccccc2C(C(=O)NC2CC2)C12CCCCC2 (centres undefined),"inconclusive: 14.1 µM [inhibitor, single point]",
COc1cccc(CNC(=O)C(CC(C)C)NS(=O)(=O)c2ccc3c(c2)oc(=O)n3C)c1 (centres undefined),"inconclusive: 2.51 µM [inhibitor, partial curve, poor fit]",
CN(CC1CCOC1)S(=O)(=O)Cc1ccccc1 (centres undefined),,inactive: 13.9% [at 5.79 µM]
Cn1c(=O)c2c(-c3ccc(Cl)cc3)n(Cc3ccc(Cl)cc3)cc2n(C)c1=O,active: 11.2 µM,
COCC1CN(C2CCC2)CC12CCN(C(=O)CC(C)C)CC2 (centres undefined),inactive,
CN1CCc2c(sc3c2C(=O)NC(c2ccc(OC(=O)c4ccccc4)cc2)N3)C1 (centres undefined),"inconclusive: 11.2 µM [inhibitor, single point]",
COc1ccc(OC)c(NCc2cccn2-c2nnc(N3CCCCC3)s2)c1,"inconclusive: 10 µM [inhibitor, single point]",
Cc1ccc(C)c(S(=O)(=O)c2cn(C)c3cc(N4CCCCC4C)c(F)cc3c2=O)c1 (centres undefined),active: 11.2 µM,
O=C(c1ccsc1)N1CC(c2noc(C3CCCN3CC3CC3)n2)C1 (centres undefined),"inconclusive: 1.41 µM [inhibitor, full curve, poor fit]",
CN(Cc1cnccn1)C(=O)[C@H]1CCC[C@@H](O)C1,"inconclusive: 3.98 µM [inhibitor, single point]",
O=C1NCCCCCN(CC2CCCCC2)[C@H]2CCC[C@@H]12,inactive,
COc1ccc(-c2cc3c(=O)n(CCNC(=O)c4cc(OC)cc(OC)c4)ccn3n2)cc1,"inconclusive: 1.12 µM [inhibitor, partial curve]",
O=C(c1ccccn1)N1CC(Oc2ccc(F)c(F)c2)C1,"inconclusive: 10 µM [inhibitor, partial curve]",
COC(=O)c1c(NC(=O)COc2c(C)cccc2C)sc2c1CCCC2,"inconclusive: 11.2 µM [inhibitor, single point]",
CS(=O)(=O)Nc1ccc(C2(C(=O)N3CCN(c4ccccc4)CC3)CCCCC2)cc1,"inconclusive: 7.08 µM [inhibitor, partial curve, poor fit]",
